# In article PMC4336329 (PLoS ONE, 2015):
# Screen size: about 310,000 compounds; about 2,200 (0.71%) showed an effect of 50% or more. The effect is printed as a negative number. This is one part of the list.
# Target: human ether-à-go-go-related gene (hERG) potassium channel (human, UniProt Q12809)
# Assay: primary screen, population patch clamp on CHO cells stably expressing hERG
# Sequence of human ether-à-go-go-related gene (hERG) potassium channel (Q12809 whole entry, looked up): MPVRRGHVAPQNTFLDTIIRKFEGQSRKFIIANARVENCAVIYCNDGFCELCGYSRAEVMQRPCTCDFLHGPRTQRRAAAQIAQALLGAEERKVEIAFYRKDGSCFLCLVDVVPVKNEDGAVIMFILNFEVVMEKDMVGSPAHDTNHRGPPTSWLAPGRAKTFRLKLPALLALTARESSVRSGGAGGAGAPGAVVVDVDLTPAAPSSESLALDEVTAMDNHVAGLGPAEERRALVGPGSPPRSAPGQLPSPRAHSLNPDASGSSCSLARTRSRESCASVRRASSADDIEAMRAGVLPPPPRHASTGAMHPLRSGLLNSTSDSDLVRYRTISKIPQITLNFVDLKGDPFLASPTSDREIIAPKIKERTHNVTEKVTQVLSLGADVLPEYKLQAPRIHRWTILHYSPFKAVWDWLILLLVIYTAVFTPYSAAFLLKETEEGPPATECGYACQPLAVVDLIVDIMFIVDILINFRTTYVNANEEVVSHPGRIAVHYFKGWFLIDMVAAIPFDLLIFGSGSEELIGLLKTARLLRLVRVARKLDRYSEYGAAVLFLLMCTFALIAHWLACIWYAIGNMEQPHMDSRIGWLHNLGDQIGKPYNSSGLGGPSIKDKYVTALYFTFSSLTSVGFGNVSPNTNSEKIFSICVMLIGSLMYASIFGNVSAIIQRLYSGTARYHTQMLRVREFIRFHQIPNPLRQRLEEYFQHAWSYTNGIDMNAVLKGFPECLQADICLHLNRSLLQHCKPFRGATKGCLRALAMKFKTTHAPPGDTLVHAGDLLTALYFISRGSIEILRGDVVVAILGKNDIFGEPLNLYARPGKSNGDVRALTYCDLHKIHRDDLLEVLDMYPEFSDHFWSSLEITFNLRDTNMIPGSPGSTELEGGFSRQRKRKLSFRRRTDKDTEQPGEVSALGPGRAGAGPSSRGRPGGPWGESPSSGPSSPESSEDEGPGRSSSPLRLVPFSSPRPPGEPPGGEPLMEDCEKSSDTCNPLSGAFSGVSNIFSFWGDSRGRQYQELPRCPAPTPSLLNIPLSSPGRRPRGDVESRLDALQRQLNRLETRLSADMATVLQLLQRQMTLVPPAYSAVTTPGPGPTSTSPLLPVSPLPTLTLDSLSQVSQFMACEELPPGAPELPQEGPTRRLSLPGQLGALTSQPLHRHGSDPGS
row,Compound,"hERG current change (%, negative = inhibition) at 1uM"
1,Cc1cc(NC(=O)CCN2CCN(C)CC2)ccc1Br.Cl,2.11%
2,Cc1oc(-c2ccccc2Cl)nc1CS(=O)CC(=O)NCc1ccc(Cl)cc1 (centres unmarked),0.0397%
3,CN(C)c1ccc(/C=N/NC(=O)CN(c2cccc(Cl)c2)S(C)(=O)=O)cc1Br,11.9%
4,O=C1CN(C(=O)CNC(=O)c2ccc(Cl)cc2Cl)CCN1,10.9%
5,CSCCC(NC(=O)COc1ccccc1)C(=O)OCCOc1ccc(Br)cc1 (centres unmarked),-3.38%
6,COC(=O)c1ccc(COc2ccc(/C=N/O)cc2OC)o1,14.5%
7,O=C(c1ccccc1)c1nnc(-c2ccncc2)o1,3.87%
8,N#Cc1cn(CC(=O)N2CCCC2)c2ccccc12,12.1%
9,Cc1cccc(C(=O)N(Cc2nc3ccccc3c(=O)[nH]2)C2CCCCC2)c1,3.32%
10,CCOc1ccc(/C=N/NC(=O)c2nnn(-c3nonc3N)c2CN2CCC(C)CC2)cc1,4.5%
11,CCC(Oc1ccc(Cl)cc1)C(=O)N1CC(=O)Nc2ccccc21 (centres unmarked),7.39%
12,COc1ccc(C(=O)NC2CC2)cc1OC1CCN(Cc2ccc(F)cc2F)CC1,-75.1%
13,CS(=O)(=O)N1CCC(NC(=O)Cc2ccccc2)CC1,13.2%
14,Cc1ccc2cc(/C=C3\N=C(c4ccccc4)OC3=O)c(N3CCOCC3)nc2c1,14.5%
15,CCCCC1=CC2=C(c3ccco3)C(=O)C(C)(OC(=O)c3ccc(OC)cc3)C(=O)C2=CN1c1ccc(OC)cc1 (centres unmarked),16%
16,COc1ccc(CCNC(=S)N2CCN(S(=O)(=O)c3ccc(F)cc3)CC2)cc1,-2.8%
17,COc1ccc(CNCc2cccn2C)cc1.Cl,6.67%
18,CCN(CC(=O)NCc1cccs1)C(=O)/C=C/c1cccc(OC)c1OC,5.63%
19,O=C(O)C1CCCN(C(=O)c2cccc3ccccc23)C1 (centres unmarked),8.46%
20,CC(=O)c1cc(CN2CCC(n3nccc3NC(=O)c3ccccc3)CC2)cs1,-1.13%
21,CC(C)(C)NS(=O)(=O)c1ccc(C(=O)Nc2ccc3c(c2)OCO3)cc1,10.4%
22,COc1ccc(C2(c3ccc(OC)cc3)NC(=O)N(CC(=O)NCC(C)c3ccccc3)C2=O)cc1 (centres unmarked),9.44%

row,Compound,"hERG current change (%, negative = inhibition) at 1uM"
1,COc1cccc(C(c2sc3nc(C)nn3c2O)N2CCN(c3ccccc3F)CC2)c1 (centres unmarked),10%
2,CCOC(=O)N1CCN(c2nc3ccccn3c(=O)c2C=O)CC1,5.93%
3,CC(CN1CCCC1)OC(=O)c1ccc(F)cc1.Cl (centres unmarked),9.21%
4,O=C(OCC#CCSc1nnc(-c2ccccc2)o1)c1cc2ccccc2o1,8.81%
5,O=C1c2ccccc2NC(c2ccccn2)N1NS(=O)(=O)c1ccccc1 (centres unmarked),11.3%
6,CC(=O)O/N=C(\N)c1cnn2c(C(F)(F)F)cc(C(F)(F)F)nc12,13.1%
7,COc1ccccc1-n1c(SCC(=O)Nc2ccc(Br)cc2)nc(O)cc1=O,14%
8,CCOC(=O)N1CCN(C(=O)C(CC(C)C)NS(=O)(=O)c2ccc(C)cc2)CC1 (centres unmarked),8.49%
9,CCCOc1ccc(Cc2nn3c(=O)/c(=C/c4ccco4)sc3nc2=O)cc1,20.3%
10,Cc1cccnc1NC(=S)NCCc1ccccc1,-3.36%
11,C/C(=N\NC(N)=O)c1ccc(-n2ccnc2)cc1,16%
12,CCOC(=O)c1ccc(Nc2cc(C)nc(N3CCOCC3)n2)cc1,6.05%
13,COc1ccc2nc(NC(=O)CN3C(=O)NC4(CCCC4)C3=O)sc2c1,10%
14,CCOc1ccccc1NC(=O)c1cc(-c2ccccn2)nc2ccccc12,11%
15,COc1ccc(NC(=O)CCCC(=O)OCC(F)(F)C(F)F)cc1,-14.7%
16,O=C(CN1CCN(S(=O)(=O)c2ccc(F)cc2)CC1)c1ccc(O)c(O)c1,-6.92%
17,COc1cccc(NC(=S)N(Cc2ccc(C)cc2)Cc2ccccn2)c1,0.185%
18,C=C(C)COc1ccc(-c2[nH]ncc2-c2ccc(Br)cc2)c(O)c1,9.7%
19,Cc1cc(C)n(Cc2ccc(C(=O)Nc3cccc(Br)c3)o2)n1,6.9%
20,Cn1c(=O)[nH]c(=O)c2c1nc(NCc1ccccc1)n2Cc1ccc(F)cc1,9.27%
21,CC(=O)c1cccc(OCC(O)CN2CCN(S(=O)(=O)c3c(F)cccc3F)CC2)c1.O=C(O)C(=O)O (centres unmarked),1.4%
22,COc1ccc([N+](=O)[O-])cc1NC(=O)COC(=O)Cc1cc(OC)c(OC)c(OC)c1,7.61%

row,Compound,"hERG current change (%, negative = inhibition) at 1uM"
1,O=C(O)/C=C/C(=O)N1CCN(S(=O)(=O)c2cc(C(F)(F)F)ccc2Cl)CC1,5.37%
2,CCN(C(=O)COC(=O)c1ccc2[nH]c3c(c2c1)CCCC3)C1CCS(=O)(=O)C1 (centres unmarked),2.34%
3,O=C(c1cc(C2CC2)on1)N1CCN(C(c2ccccc2)c2ccccc2)CC1,16.2%
4,CCOC(=O)c1cn(CC(=O)Nc2ccc(CC)cc2)nn1,10.9%
5,O=C(CCC1CCCC1)Nc1ccon1,14.3%
6,CCOc1cc(C=O)ccc1OCCn1c([N+](=O)[O-])cnc1C,17.4%
7,COc1ccc(/C=C2\SC(=S)N(CC3CCCO3)C2=O)cc1 (centres unmarked),14.4%
8,Cc1ccc(-n2nc(CN3CCOCC3)c(-c3ccccc3)c2N)c(C)c1,-3.29%
9,Cn1c(SCC(=O)C(C)(C)C)nnc1-c1ccncc1,1.9%
10,COc1ccc(OC)c(C2=NNC(=NCc3ccc4c(c3)OCO4)SC2)c1,14.4%
11,CCOC(=O)c1ccccc1NC(=O)COC(=O)C1=COCCO1,7.39%
12,CCOc1ccc(NCc2nnc(SCC(=O)Nc3cc(C)on3)n2-c2ccccc2OC)cc1,7.98%
13,CN1CCN(C(=O)/C(=C\c2cccc([N+](=O)[O-])c2)NC(=O)c2cccs2)CC1,-6.36%
14,CCOc1ccccc1N1CCN(C(=O)/C=C/c2cccc([N+](=O)[O-])c2)CC1,-3.98%
15,O=C1C(Oc2ccccc2)C(c2ccc3c(c2)OCO3)N1CCc1ccc(F)cc1 (centres unmarked),16%
16,CCCCCCc1ccc(OCC(=O)OC)cc1OCC(=O)OC,14%
17,CCn1c(SCC(=O)O)nc2sc3c(c2c1=O)CCC3,0.813%
18,Fc1ccc(/C=N/NC2=Nc3cccc4cccc2c34)cc1,31%
19,Cc1csc(SCC(=O)Nc2ccccc2)n1,9.64%
20,COc1ccc(N2C(=O)CC(NCc3ccncc3)C2=O)cc1 (centres unmarked),16.7%
21,COc1ccc(N(CC(=O)Nc2cc(C)ccc2C)S(=O)(=O)c2c(C)[nH]c(=O)[nH]c2=O)cc1,7.66%
22,Cc1ccc(C(=O)NC2CCCN(c3ccc(C(F)(F)F)cn3)C2)cn1 (centres unmarked),2.48%

row,Compound,"hERG current change (%, negative = inhibition) at 1uM"
1,COc1ccc(N2CCN(C(=O)NCc3ccc(OC)c(OC)c3)CC2)cc1,7.55%
2,O=C(NCCCN1CCOCC1)c1ccc(CSCc2cccc(Cl)c2)o1,-44.4%
3,Cc1onc(-c2ccccc2)c1C(=O)OCC(=O)NC(C)c1ccc(Cl)cc1 (centres unmarked),7.15%
4,Cn1c(N)c(C(=O)CSc2nc(N)cc(N)n2)c(=O)n(C)c1=O,14%
5,c1ccc(Nc2ccc3c4c(cccc24)CC3)cc1,15.8%
6,COc1cccc(NC(=O)c2cc3c(=O)n4ccccc4nc3n(CC(C)C)c2=N)c1,-87.5%
7,CCOC(=O)[C@H]1[C@H]2COc3cc(OC)ccc3[C@@H]2N2C(=O)CN(Cc3ccc(OC)cc3)C(=O)[C@@]12C,17.5%
8,COc1ccccc1CNC(=O)C1CC2Cn3c(nc4cc5ccccc5cc43)C2N1C (centres unmarked),4.32%
9,Cc1cnc(C(=O)OCC(=O)Nc2cc(-c3ccccc3)nn2-c2ccccc2)cn1,-10.1%
10,O=C(Nc1ccccc1F)C1CCCN1S(=O)(=O)c1cccc2nsnc12 (centres unmarked),10.7%
11,COc1ccc(NC(=O)CSc2nc3c([nH]c4ccccc43)c(=O)n2C)c(OC)c1,17.1%
12,CNC(=O)COc1coc(CN2CCN(C(=O)c3ccco3)CC2)cc1=O,5.14%
13,Cc1ccc(CCNC(=O)c2ccc3nc4ccc(Cl)cc4c(=O)n3c2)cc1,13.1%
14,O=C(/C=C\Nc1ccc(Br)cc1)c1cccnc1,2.34%
15,Cc1ccc(C(C)(C)C)cc1S(=O)(=O)Nc1cccc(S(=O)(=O)NC2=NCCC2)c1,22%
16,COc1cccc(C(=O)Nc2cccc(-c3ccc4nncn4n3)c2)c1OC,12%
17,CCOc1ccc(S(=O)(=O)NCCC(=O)NCC(c2ccc(OC)cc2)N2CCCCC2)cc1 (centres unmarked),-21.9%
18,CNc1nnc(SCC(=O)N2c3ccccc3NC(=O)CC2C)s1 (centres unmarked),6.91%
19,CCOC(=O)N1CCC(NC(=O)c2cc(S(=O)(=O)N3CCc4ccccc43)cn2C)CC1,-7.91%
20,O=C(NCC(c1ccccc1Cl)N1CCCC1)C1CCN(C(=O)Nc2ccccc2)CC1 (centres unmarked),15.2%
